Test results reported in publication PMC4336329 (PLoS ONE, 2015).
Among all 310,000 compounds or so, about 2,200 (0.71%) showed an effect of 50% or more. The effect is printed as a negative number. This is one part of the list.

Molecular target: human ether-à-go-go-related gene (hERG) potassium channel (human, UniProt Q12809)
Assay: primary screen, population patch clamp on CHO cells stably expressing hERG

human ether-à-go-go-related gene (hERG) potassium channel, sequence (Q12809 whole entry, looked up): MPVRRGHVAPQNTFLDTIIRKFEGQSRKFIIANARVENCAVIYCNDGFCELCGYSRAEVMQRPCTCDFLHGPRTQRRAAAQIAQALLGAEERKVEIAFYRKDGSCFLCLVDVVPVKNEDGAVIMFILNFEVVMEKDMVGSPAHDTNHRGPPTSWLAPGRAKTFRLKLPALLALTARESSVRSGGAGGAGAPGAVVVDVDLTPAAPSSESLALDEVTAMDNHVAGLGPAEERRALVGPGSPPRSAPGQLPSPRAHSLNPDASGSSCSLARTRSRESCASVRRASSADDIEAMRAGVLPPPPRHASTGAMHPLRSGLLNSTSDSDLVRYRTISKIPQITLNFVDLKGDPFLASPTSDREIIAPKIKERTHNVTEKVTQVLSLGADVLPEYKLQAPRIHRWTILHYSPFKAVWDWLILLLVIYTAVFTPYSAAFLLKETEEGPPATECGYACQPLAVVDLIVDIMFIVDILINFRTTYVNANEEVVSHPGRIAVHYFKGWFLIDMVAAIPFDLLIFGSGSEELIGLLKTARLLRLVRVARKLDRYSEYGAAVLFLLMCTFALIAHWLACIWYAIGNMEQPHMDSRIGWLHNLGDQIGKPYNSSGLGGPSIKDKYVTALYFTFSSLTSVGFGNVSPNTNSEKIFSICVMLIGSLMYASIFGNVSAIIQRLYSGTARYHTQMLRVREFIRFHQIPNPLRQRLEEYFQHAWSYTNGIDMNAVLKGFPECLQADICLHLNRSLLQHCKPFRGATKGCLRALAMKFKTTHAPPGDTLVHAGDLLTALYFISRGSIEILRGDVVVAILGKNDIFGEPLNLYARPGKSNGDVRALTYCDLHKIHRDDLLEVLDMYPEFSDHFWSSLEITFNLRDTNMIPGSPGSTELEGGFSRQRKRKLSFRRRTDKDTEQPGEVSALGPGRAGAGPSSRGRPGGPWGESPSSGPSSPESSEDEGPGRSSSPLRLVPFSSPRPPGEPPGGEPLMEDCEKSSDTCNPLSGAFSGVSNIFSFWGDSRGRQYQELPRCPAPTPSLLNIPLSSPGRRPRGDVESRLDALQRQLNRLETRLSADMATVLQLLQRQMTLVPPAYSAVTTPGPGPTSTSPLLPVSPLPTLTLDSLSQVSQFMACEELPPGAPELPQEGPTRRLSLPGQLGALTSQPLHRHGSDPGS

Structure (SMILES) | hERG current change (%, negative = inhibition) at 1uM [%]
COC(=O)c1[nH]c2ccccc2c1NC(=O)CN1CCC(C(N)=O)(N2CCCCC2)CC1 | -3.13
CCOC(=O)Cc1cc(=O)n2[nH]c(C)c(-c3ccccc3OC)c2n1 | 7.37
O=[N+]([O-])c1cccnc1NCCc1c[nH]c2ccccc12 | 10
CCn1c(=O)n(CC)c2cc(S(N)(=O)=O)c(C)cc21 | 13.4
O=c1[nH]c2cc3c(cc2cc1CN(Cc1ccco1)C(=S)NCCCN1CCOCC1)OCCO3 | 15
O=C1OC(C(=O)NCc2ccccc2)Cc2ccccc21 (stereo not drawn) | 8.68
Cc1ncc(CNC(=O)N(CCCl)N=O)c(N)n1.Cl | 8.14
CC1(C)NC(=O)N(CC(O)COc2cccc(F)c2)C1=O (stereo not drawn) | 5.39
COc1ccc(OC)c(C2=NOC(C(=O)N3CCC4(CC3)OCCO4)C2)c1 (stereo not drawn) | 7.59
CCOC(=O)c1ccc(NC(=O)Cn2cccc2)cc1 | -2.65
COc1ccc(NC(=S)NCCc2c[nH]c3ccc(OC)cc23)c(OC)c1 | 11.5
COc1ccc(Cl)cc1N(CC(=O)Nc1ccccc1C(=O)N1CCCC1)S(C)(=O)=O | 9.56
COc1ccccc1NC(=O)Nc1cccnc1 | 7
O=C(c1ccccc1)c1sc(N2CCOCC2)nc1-c1ccccc1 | -7.74
COC(=O)Cn1cnc2c(cnn2-c2ccccc2)c1=O | 11.3
COc1ccc(/C=C(/NC(=O)c2ccccc2)C(=O)NCc2ccncc2)cc1 | -12.6
Cc1[nH]nc2c1C(c1cccs1)C1=C(CC(C)(C)CC1=O)N2 (stereo not drawn) | 7.15
Cc1ccc(S(=O)(=O)N2CCCCC2C(=O)NCc2ccco2)cc1 (stereo not drawn) | 5.24
Cc1cnc(CNC(=O)c2ccc3oc(C(C)C)nc3c2)[nH]1 | 2.8

Structure (SMILES) | hERG current change (%, negative = inhibition) at 1uM [%]
O=C(c1ccccn1)N1CCN(S(=O)(=O)c2ccc(F)cc2)CC1 | 3.93
Cc1nc(NC(=O)c2ccc(-c3cc4ccccc4oc3=O)cc2)ccc1Br | 17.3
COc1cc(CN2CCNC(=O)C2CC(=O)N(C)Cc2ncc[nH]2)cc(OC)c1 (stereo not drawn) | 12.8
CCNC(=S)/N=C(\N)Nc1nc(C)c2cc(C)ccc2n1 | 6.88
Cc1ccc(C)c(C(=O)COC(=O)Cn2[nH]c(=O)c3ccccc3c2=O)c1 | 9.74
COc1ccccc1C(=O)Nc1onc(C)c1C#N | 1.84
CNCC(=O)O | 7.06
COc1ccc(NC(=O)c2sc(Cl)nc2-c2ccccc2)cc1 | 9.86
Cc1ccc(NC(=O)/C(=C/c2ccc([N+](=O)[O-])cc2)NC(=O)c2ccccc2)cc1 | 2.69
CCOc1ccc(CCNC(=O)COC(=O)c2cccc(OC)c2O)cc1OCC | 13.7
C/C=C/Cn1c(N(C)Cc2ccccc2)nc2c1c(=O)[nH]c(=O)n2C | 1.79
CN1CCN(C(=O)c2ccc3c(c2)N(Cc2ccc(F)cc2)C(=O)c2ccccc2S3=O)CC1 (stereo not drawn) | 18.2
O=C(O)CN(c1ccccn1)S(=O)(=O)c1ccc(Cl)cc1 | 12.5
CCCc1cc(=O)n2[nH]c(-c3cc(OC)c(OC)c(OC)c3)nc2n1 | 11.3
CCCCCOC(=O)C1=C(C)Nc2nnnn2C1c1ccccc1Cl (stereo not drawn) | 12.2
N#CC(c1ccc(Cl)nn1)c1ccc(Cl)cc1Cl (stereo not drawn) | 8.39
CCCC(=O)Nc1nc2c(OC)ccc(OC)c2s1 | 3.46
O=C(NCCc1ccccc1F)/C(=C/c1cccnc1)NC(=O)c1ccccc1 | -3.24
N#Cc1ccc(NC(=O)COC(=O)CCc2ccc(S(=O)(=O)N3CCCCC3)cc2)cc1 | 11.8

Structure (SMILES) | hERG current change (%, negative = inhibition) at 1uM [%]
O=C1CCN(C(=S)NCc2ccccc2)CC1 | 16.4
O=S(=O)(NNc1ccc(F)cc1F)c1cccc(Cl)c1 | 22.6
COc1ccc(CCC(=O)OCC(=O)N(CC(C)C)c2c(N)n(Cc3ccccc3)c(=O)[nH]c2=O)cc1 | 8.04
O=C(CCCn1c(=S)[nH]c2ccc(Br)cc2c1=O)NCC1CCCO1 (stereo not drawn) | 23.4
CCc1nc(SCC(=O)Nc2cc(C)on2)c2c(=O)n(C)c(=O)n(C)c2n1 | 19.1
Cc1ccc(NC(=O)N(CCC(=O)O)Cc2ccccc2)cc1 | 13.6
Cc1oc2c(C)c3oc(=O)c(CCC(=O)NCCCN4CCOCC4)c(C)c3cc2c1C | 12.5
Cn1c(=O)c(C(=O)COC(=O)c2cc(-c3ccco3)nc3ccccc23)c(N)n(Cc2ccccc2)c1=O | -7.17
COc1cc(C(=O)NC2CCN(Cc3nnnn3Cc3cccs3)CC2)cc(OC)c1OC | 12.9
CC(C)(OC1OC(CO)C(O)C(O)C1O)[C@H]1Oc2ccc3ccc(=O)oc3c2[C@H]1O (stereo partly drawn) | 13.9
Cn1c(N)c(S(=O)(=O)N2CCN(c3ccccc3Cl)CC2)c(=O)n(C)c1=O | 8.92
Cc1ccc(C(=O)c2c3ccc([N+](=O)[O-])cc3[n+]([O-])n2CCCC(N)=O)cc1 | -11.4
CCOC(=O)C(C)(C)Oc1cccc2c1S(=O)(=O)c1ccccc1-2 | 6.97
O=C(Nc1ccc(S(=O)(=O)NCc2ccco2)cc1)c1ccc(F)cc1 | 9.05
CCCS(=O)(=O)N1CCC(C(=O)N2CCOCC2)CC1 | 1.97
COc1cc(/C=C/C(=O)N2CCN(c3ccccn3)CC2)cc(OC)c1OC | 10.2
Cc1ccc(-c2c(C#N)c(N)nc3c2CCCC3)s1 | 5.7
CC(C)c1onc(C(=O)N2CCC(C(N)=O)CC2)c1[N+](=O)[O-] | 13
COc1cc(C#Cc2c(-c3cncn3C)n(C)c3ccc(-c4ccc5[nH]ccc5c4)cc23)cc(OC)c1 | 17.2
